Measured values from the GPR68 mutational scans of Howard et al. (2025).
Scores with a large standard error are left out. Not listed are two conditions whose scores span a narrow range. Names with del lack the residues named; names with ins carry added residues between the positions named. For some assays here: How much ogerin was present is not stated here.

B1: GPR68, Q15743 (parent)
chain: MGNITADNSSMSCTIDHTIHQTLAPVVYVTVLVVGFPANCLSLYFGYLQIKARNELGVYLCNLTVADLFYICSLPFWLQYVLQHDNWSHGDLSCQVCGILLYENIYISVGFLCCISVDRYLAVAHPFRFHQFRTLKAAVGVSVVIWAKELLTSIYFLMHEEVIEDENQHRVCFEHYPIQAWQRAINYYRFLVGFLFPICLLLASYQGILRAVRRSHGTQKSRKDQIQRLVLSTVVIFLACFLPYHVLLLVRSVWEASCDFAKGVFNAYHFSLLLTSFNCVADPVLYCFVSETTHRDLARLRGACLAFLTCSRTGRAREAYPLGAPEASGKSGAQGEEPELLTKLHPAFQTPNSPGSGGFPTGRLA

Legend:
[1] = variants of: B1; assay: cAMP reporter score (Enrich2 score, wild type = 0); higher = more signal; HEK293T, FACS bins
[2] = variants of: B1; assay: surface expression score (Enrich2 score, wild type = 0); higher = more signal; HEK293T, FACS bins

Row | Variant | cAMP reporter score ([1]; pH 5.5) | cAMP reporter score ([1]; pH 6) | cAMP reporter score ([1]; pH 6, modulator: ogerin) | cAMP reporter score ([1]; pH 6.5, modulator: ogerin) | surface expression score [2]
1 | P346_A347insGSG | -0.369 | 0.994 | 0.428 | 0.866 | 0.866
2 | A347C | 0.751 | -0.282 | 0.847 | 0.288 | 0.943
3 | A347D | -0.307 | 0.025 | -0.714 | -0.63 | -1.16
4 | A347E | 0.194 | – | 0.801 | 1.96 | 0.92
5 | A347F | -0.538 | -1.08 | -0.233 | 0.155 | -0.455
6 | A347G | 1.74 | 0.935 | 2.14 | 1.78 | 1.57
7 | A347H | -0.03 | -0.356 | 1.48 | 0.765 | 1.47
8 | A347I | 0.221 | 0.308 | 0.103 | 0.528 | 0.525
9 | A347K | -0.024 | – | 1.85 | -0.057 | 0.898
10 | A347L | -0.497 | -0.877 | -0.667 | -0.691 | -0.888
11 | A347M | 2.68 | – | – | -0.75 | -0.387
12 | A347N | -1.16 | -0.056 | 0.387 | -0.431 | –
13 | A347P | -0.102 | 0.225 | 0.052 | -0.263 | 0.864
14 | A347Q | -0.16 | 0.401 | -0.243 | -0.732 | -0.485
15 | A347R | 0.619 | 1.89 | 0.353 | 1.04 | 0.741
16 | A347S | 0.654 | 0.518 | 1.04 | 0.597 | 0.312

Row | Variant | cAMP reporter score ([1]; pH 5.5) | cAMP reporter score ([1]; pH 6) | cAMP reporter score ([1]; pH 6, modulator: ogerin) | cAMP reporter score ([1]; pH 6.5, modulator: ogerin) | surface expression score [2]
17 | A347V | 0.45 | 0.272 | 0.291 | 0.643 | 0.439
18 | A347W | 0.871 | 0.189 | 0.841 | 0.433 | 0.132
19 | A347Y | 0.056 | 0.448 | -0.344 | 0.016 | -0.753
20 | A347_F348insG | 0.419 | 1.57 | 1.34 | 1.75 | 0.561
21 | A347_F348insGS | 0.965 | – | 0.935 | 0.933 | 1.81
22 | A347del | 0.035 | 1.18 | -0.601 | 0.041 | -0.077
23 | F348A | 0.497 | 0.78 | 1 | 1.54 | 1.13
24 | F348C | 0.709 | 1.94 | 1.1 | -0.063 | 1.4
25 | F348D | -0.265 | -0.477 | -0.817 | 0.045 | -0.876
26 | F348E | 0.197 | 0.44 | 0.237 | 0.472 | 0.658
27 | F348G | -0.699 | -0.488 | 0.503 | 1.16 | -0.5
28 | F348H | 0.974 | 0.998 | 0.94 | 0.546 | 0.578
29 | F348I | 1.36 | 2.28 | 1.09 | 1.63 | 1.72
30 | F348K | -0.978 | -0.07 | 0.148 | 0.552 | 0.972
31 | F348L | 0.654 | -0.177 | 0.412 | 0.046 | 0.955
